Assay results reported in publication PMC4336329 (PLoS ONE, 2015).
Out of some 310,000 compounds screened, about 2,200 (0.71%) showed an effect of 50% or more. The effect is printed as a negative number. The list shows a part of the results.

Each compound was assayed against human ether-à-go-go-related gene (hERG) potassium channel (human, UniProt Q12809) (assay: primary screen, population patch clamp on CHO cells stably expressing hERG).
human ether-à-go-go-related gene (hERG) potassium channel, sequence (Q12809 whole entry, looked up): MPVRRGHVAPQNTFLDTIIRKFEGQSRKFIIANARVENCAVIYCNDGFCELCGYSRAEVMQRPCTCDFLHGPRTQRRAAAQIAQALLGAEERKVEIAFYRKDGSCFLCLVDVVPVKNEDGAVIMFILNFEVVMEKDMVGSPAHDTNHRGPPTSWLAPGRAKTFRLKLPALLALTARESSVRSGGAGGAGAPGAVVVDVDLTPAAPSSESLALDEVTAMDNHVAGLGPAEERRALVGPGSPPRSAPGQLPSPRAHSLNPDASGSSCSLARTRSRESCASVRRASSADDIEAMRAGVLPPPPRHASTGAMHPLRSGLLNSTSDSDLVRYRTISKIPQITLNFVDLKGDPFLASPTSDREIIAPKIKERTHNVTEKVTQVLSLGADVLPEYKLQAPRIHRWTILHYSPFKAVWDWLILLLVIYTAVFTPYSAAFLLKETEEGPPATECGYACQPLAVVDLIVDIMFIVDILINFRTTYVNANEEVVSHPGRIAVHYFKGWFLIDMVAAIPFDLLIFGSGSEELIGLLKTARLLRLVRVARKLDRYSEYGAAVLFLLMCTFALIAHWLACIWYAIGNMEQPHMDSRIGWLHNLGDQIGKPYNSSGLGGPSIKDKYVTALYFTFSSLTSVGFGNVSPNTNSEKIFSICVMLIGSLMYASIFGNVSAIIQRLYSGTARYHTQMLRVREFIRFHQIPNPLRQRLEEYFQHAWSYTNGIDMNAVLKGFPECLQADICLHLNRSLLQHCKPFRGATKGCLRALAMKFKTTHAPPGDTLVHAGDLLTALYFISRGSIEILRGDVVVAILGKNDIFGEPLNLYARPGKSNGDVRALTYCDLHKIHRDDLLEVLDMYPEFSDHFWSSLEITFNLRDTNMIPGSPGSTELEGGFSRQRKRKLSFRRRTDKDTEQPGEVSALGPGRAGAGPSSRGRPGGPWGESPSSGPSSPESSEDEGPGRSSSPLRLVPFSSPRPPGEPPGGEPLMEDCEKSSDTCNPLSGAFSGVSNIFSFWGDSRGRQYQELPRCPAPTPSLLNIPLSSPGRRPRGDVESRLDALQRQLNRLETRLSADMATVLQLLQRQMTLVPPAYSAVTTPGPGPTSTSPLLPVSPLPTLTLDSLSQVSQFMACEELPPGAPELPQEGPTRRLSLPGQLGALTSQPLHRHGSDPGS

In order of rising “hERG current change (%, negative = inhibition) at 1uM” value:
1. Cc1ccc(/C=C(\NC(=O)c2ccccc2)C(=O)NC2CCN(Cc3ccccc3)CC2)o1  -33.6%
2. COc1ccccc1-c1nnc(SCC(=O)Nc2nc(-c3ccccc3)cs2)n1C  -15.5%
3. COc1ccc(CN(C(=O)c2cccs2)C(C(=O)NC2CCCCC2)c2ccc3ncccc3c2)cc1 (stereo not drawn)  -6.69%
4. CCn1c(CNc2ccc(Cl)cc2)nnc1SCC(=O)OC1CCCCC1  -5.69%
5. O=C(CSc1ncccc1-c1nc2ccccc2[nH]1)N1CCN(c2ccccc2F)CC1  -2.69%
6. CCOc1ccc(-c2cccc(NS(=O)(=O)c3ccc([N+](=O)[O-])cc3)c2)nn1  -1.87%
7. COc1cccc(/C=C/C(=O)OCC(=O)NCCC2=CCCCC2)c1  -1.66%
8. Cn1cc(S(=O)(=O)NCc2ccc3c(c2)OCO3)c(C(F)(F)F)n1  -1.4%
9. CCOC(=O)N1CCN(C(=O)COc2cc(=O)n(C)c3ccccc23)CC1  -0.465%
10. Cn1ncc(Cl)c1C(=O)N1CCC(Cc2ccccc2)CC1  0.0461%
11. Cc1ccc2cc(CN(Cc3ccco3)C(=O)c3cccs3)c(=O)[nH]c2c1  0.254%
12. CN1CCC(=O)N(CCSc2ccccc2)CC1  0.897%
13. O=C(NC1CCCC1)C(c1c[nH]c2ccccc12)N(C(=O)Cn1nnc(-c2ccc(Cl)cc2)n1)c1ccccc1 (stereo not drawn)  1.15%
14. CCOc1ccccc1C1C(C#N)=C(N)Oc2cc(N)ccc21 (stereo not drawn)  1.83%
15. CC(C)Oc1ccc(CNS(=O)(=O)c2csc(C(N)=O)c2)cc1  1.93%
16. CCN(C1CCS(=O)(=O)C1)S(=O)(=O)c1cc(C)ccc1C (stereo not drawn)  2.05%
17. Cc1ccc[n+](C(C)C(=O)c2ccc(-c3ccccc3)cc2)c1.[Br-] (stereo not drawn)  2.13%
18. O=C(Nc1ccccc1Cl)N1CCN(C/C=C/c2ccccc2)CC1  2.56%
19. O=C(C=C1SCCS1)/C=C/c1ccco1  3.43%
20. COc1ccc(CCn2c(=S)[nH]c3cc(C(=O)NCc4ccco4)ccc3c2=O)cc1OC  3.65%
21. NC(=O)CN1CCN(C(=O)NC2CCCCC2)CC1  4.67%
22. Cc1ccc(C)c(NC(=O)COC(=O)c2c(C)nn(-c3ccccc3)c2C)c1  4.83%
23. CC1CCC(NC(=O)CSc2nncs2)CC1 (stereo not drawn)  4.93%
24. COc1ccc(CNC(=O)c2nc(S(=O)(=O)Cc3ccccc3)ncc2Cl)cc1  5.21%
25. O=C(C[n+]1ccccc1)N/N=C/c1cc(Br)cc(Br)c1O.[Cl-]  5.48%
26. O=C(NC(=S)N1CCN(C/C=C/c2ccccc2)CC1)c1ccc(Cl)nc1  5.61%
27. COc1cc(S(=O)(=O)N(Cc2ccccc2)Cc2ccccn2)ccc1-n1cnnn1  5.68%
28. Cc1nc(SCC(=O)N2CCOCC2)c2ccsc2n1  5.82%
29. COc1ccc(C(CNC(=O)c2ccc(-c3nc4ccccc4s3)o2)N2CCCC2)cc1 (stereo not drawn)  5.84%
30. Cc1ccc(S(=O)(=O)N2CCCCC2)cc1C(=O)N(C)CC(=O)Nc1ccc(Cl)c(C(F)(F)F)c1  5.92%
31. Cc1ccc(Nc2cc(-n3nc(C)cc3C)ncn2)c(C)c1  5.93%
32. O=C(COC(=O)c1ccc2c(c1)OCO2)NC1CCS(=O)(=O)C1 (stereo not drawn)  5.95%
33. CC(=O)c1cccc(NC(=S)NCCc2ccc(Cl)cc2)c1  6.05%
34. Nc1cc(N)nc(SCC(=O)Nc2ccc3c(c2)OCO3)n1  6.41%
35. CC(C)CNC(=O)NC(=O)CSc1nc2ccccc2n1CC(C)C  6.65%
36. O=C(NCc1cccc(C(F)(F)F)c1)C1CC2Cn3c(nc4ccccc43)C2N1Cc1ccccc1 (stereo not drawn)  6.92%
37. O=C(Cn1nc(-c2cccc([N+](=O)[O-])c2)c2ccccc2c1=O)NCC1CCCO1 (stereo not drawn)  6.93%
38. CC1(OC(=O)C2CCCC2)C(=O)C=C2C=C(c3ccsc3)N(CCc3ccccn3)C=C2C1=O (stereo not drawn)  7.11%
39. COc1cc(CNC(=O)c2ccc3c(c2)S(=O)(=O)c2ccccc2C3=O)cc(OC)c1  7.13%
40. O=C(Nc1cccc(S(=O)(=O)N2CCOCC2)c1)c1cc2c(s1)CCC2  7.19%
41. O=C(CN1CCN(Cc2ccc(F)cc2)C1=O)NC1CCCC1  8.01%
42. CC(CN1CCOCC1)OC(=O)COc1ccc(F)cc1 (stereo not drawn)  8.05%
43. O=C(NCc1ccccc1)C1CCCN(S(=O)(=O)c2cccc3nsnc23)C1 (stereo not drawn)  8.4%
44. Cc1cc(NC(=O)COn2nnc3ccccc32)no1  8.4%
45. Cn1c(CN2CCOCC2)nnc1SCC(=O)Nc1cccc(C(F)(F)F)c1  8.57%
46. COc1cc(/C=C/c2cc[n+](C)cc2)ccc1OCC(=O)Nc1ccccc1.[I-]  8.71%
47. CC(=O)Nc1ccccc1OCC(=O)NCCC1=CCCCC1  8.95%
48. Cc1nnc(NC(=O)c2csc3c2CCCC3)s1  9.19%
49. COc1ccc(C(NCC(=O)Nc2c(C)cccc2C)c2ccccc2)cc1.O=C(O)C(=O)O (stereo not drawn)  9.2%
50. CC(=O)Nc1ccc(NC(=O)CSc2nnc3ccc(-c4ccccn4)nn23)cc1  9.29%
51. CC1CCC(NC(=O)COC(=O)c2ccco2)CC1 (stereo not drawn)  9.77%
52. CCOc1ccc(/C=N/NC(=O)CC(=O)NCc2ccccc2)cc1  9.96%
53. Cc1sc2nc(C(C)C)nc(SCC(=O)N3CCOCC3)c2c1C  10.4%
54. CC(C)CCNC(=O)CN(C)S(=O)(=O)c1cccc2nsnc12  10.7%
55. O=C(c1cc(-c2ccc(F)cc2)on1)N1CCCCCC1  10.9%
56. CCOc1cc2c(cc1C=O)OC(C)C2 (stereo not drawn)  11.1%
57. COc1ccc2c(c1)CCCC21SC(NC(C)=O)=NN1C(C)=O (stereo not drawn)  11.3%
58. O=C(NNC1=NCCCCC1)Nc1ccc(Cl)cc1  11.5%
59. Clc1ccc2nc(-c3ccc(Cl)nc3)[nH]c2c1  11.5%
60. O=C(NCc1ccco1)c1cc(S(=O)(=O)N2CCOCC2)ccc1Br  12.1%
61. COc1ccccc1N(CC(O)Cn1nc(C)cc1C)S(=O)(=O)c1ccccc1 (stereo not drawn)  12.2%
62. O=C(O)c1cnn(-c2nc(-c3cccc(F)c3)cs2)c1C(F)(F)F  12.3%
63. CCN(CC)CCOC(=O)c1ccc(N/C=C(/C#N)c2nc(-c3ccc4c(c3)OCO4)cs2)cc1  12.3%
64. O=C(COC(=O)c1c(F)cccc1F)c1ccc[nH]1  12.7%
65. O=S(=O)(NC1CN2CCC1CC2)c1ccc(Cl)cc1 (stereo not drawn)  13.1%
66. Cc1ccnc(SC2CC(=O)N(c3ccc(Br)cc3)C2=O)n1 (stereo not drawn)  13.5%
67. CS(=O)(=O)N1CCN(C(=O)COc2ccc3ccccc3c2)CC1  14.4%
68. O=C(CCc1ccccc1)NNC(=O)Cc1ccc(Cl)cc1  14.8%
69. COc1ccc(/C=C/C(=O)Nc2c(C)nn(C)c2C)cc1COc1ccc(Br)cc1  14.9%
70. Cc1ccc(C(=O)N2CCc3ccccc32)o1  14.9%
71. Cc1ccc(S(=O)(=O)c2nc(S(C)(=O)=O)sc2N2CCCC2)cc1  15.1%
72. CCOC(=O)c1cn(C2CC2)c2c(F)c(NCCCN(C)C)c(F)cc2c1=O  15.2%
73. Cc1cc(C(=O)OCC(=O)N2CC(=O)Nc3ccccc32)c(C)n1-c1ccccc1  15.4%
74. CCc1ccc(Nc2nc(N3CCOCC3)nc(N3CCOCC3)n2)cc1.Cl  15.8%
75. Cc1noc(C)c1COc1ccc(C(=O)OCC(=O)Nc2ccc(C(=O)N(C)C)cc2)cc1  15.9%
76. CCOc1ccc(OCC)c(NC(=O)C2CCCN(S(=O)(=O)c3ccc(C)cc3)C2)c1 (stereo not drawn)  15.9%
77. O=C(NCCc1c[nH]c2ccccc12)Nc1ccccc1  16.3%
78. Cc1cc(C(F)(F)F)c2c(N)c(C(=O)NC3CC3)sc2n1  16.5%
79. Cc1ccc(C(=O)NNC(=O)c2cccnc2SCc2cccc([N+](=O)[O-])c2)cc1  16.7%
80. CCCCOCCCNC(=O)COc1ccccc1  17.2%
81. COc1cccc(/C=C(\C#N)c2nc3ccccc3[nH]2)c1OCC(=O)O  17.3%
82. CN(C)S(=O)(=O)c1ccc(N2CCCC2)c(C(=O)NCc2cccc(C(F)(F)F)c2)c1  17.4%
83. CCOC(=O)c1c(C)[nH]c(C)c1C(=O)COc1ncnc2ccccc12  17.7%
84. COc1ccccc1CCC(=O)OCC(=O)N1c2ccccc2NC(=O)C1(C)C  18.1%
85. COc1ccccc1-n1c(Cc2cccs2)n[nH]c1=S  18.9%
86. CC1CCN(S(=O)(=O)c2ccc3c(c2)N(CC(=O)NCCCOC(C)C)C(=O)CO3)CC1  20.9%
87. CC1CCc2nc3ccc(S(=O)(=O)N4CCC(C(=O)NC(C)c5ccccc5)CC4)cc3c(C(=O)O)c2C1 (stereo not drawn)  24.9%
